Measurements published in article PMC4336329 (PLoS ONE, 2015).
Hit rate of the full screen: of about 310,000 compounds, about 2,200 (0.71%) showed an effect of 50% or more. The effect is printed as a negative number. The list shows a part of the results.

target: human ether-à-go-go-related gene (hERG) potassium channel (human, UniProt Q12809); assay: primary screen, population patch clamp on CHO cells stably expressing hERG
Sequence (Q12809 whole entry, looked up): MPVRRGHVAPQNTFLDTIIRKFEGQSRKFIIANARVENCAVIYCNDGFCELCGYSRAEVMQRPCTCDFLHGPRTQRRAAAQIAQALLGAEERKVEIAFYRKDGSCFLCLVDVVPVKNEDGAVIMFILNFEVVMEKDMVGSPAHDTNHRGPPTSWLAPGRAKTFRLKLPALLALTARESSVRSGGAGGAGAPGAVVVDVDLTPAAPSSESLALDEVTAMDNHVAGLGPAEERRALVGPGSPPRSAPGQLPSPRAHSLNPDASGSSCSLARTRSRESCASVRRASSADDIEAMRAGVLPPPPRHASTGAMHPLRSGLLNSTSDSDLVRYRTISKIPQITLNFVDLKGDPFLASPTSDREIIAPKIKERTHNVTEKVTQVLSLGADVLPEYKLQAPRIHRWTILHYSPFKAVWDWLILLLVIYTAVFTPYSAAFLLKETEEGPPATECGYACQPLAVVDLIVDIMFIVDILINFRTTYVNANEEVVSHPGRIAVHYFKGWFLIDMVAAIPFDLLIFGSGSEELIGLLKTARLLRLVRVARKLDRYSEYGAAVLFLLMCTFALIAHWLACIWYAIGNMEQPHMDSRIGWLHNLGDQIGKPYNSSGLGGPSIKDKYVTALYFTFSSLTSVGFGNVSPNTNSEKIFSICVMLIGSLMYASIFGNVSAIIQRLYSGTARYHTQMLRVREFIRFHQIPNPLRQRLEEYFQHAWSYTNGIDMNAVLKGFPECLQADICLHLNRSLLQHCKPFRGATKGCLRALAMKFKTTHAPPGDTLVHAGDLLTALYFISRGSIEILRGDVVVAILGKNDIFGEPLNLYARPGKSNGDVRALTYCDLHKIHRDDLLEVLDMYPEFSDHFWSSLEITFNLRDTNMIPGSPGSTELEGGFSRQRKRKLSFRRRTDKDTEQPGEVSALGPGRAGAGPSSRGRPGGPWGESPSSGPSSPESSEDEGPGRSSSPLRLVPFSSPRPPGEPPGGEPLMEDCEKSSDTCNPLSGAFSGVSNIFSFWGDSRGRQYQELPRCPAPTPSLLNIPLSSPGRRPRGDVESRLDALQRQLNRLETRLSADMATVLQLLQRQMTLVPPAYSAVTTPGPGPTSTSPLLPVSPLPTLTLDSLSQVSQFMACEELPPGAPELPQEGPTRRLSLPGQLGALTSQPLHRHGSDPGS

| Structure (SMILES) | hERG current change (%, negative = inhibition) at 1uM [%] |
| --- | --- |
| COc1ccccc1NC(=O)COc1cc(Br)c(CNCCCN2CCOCC2)cc1OC | 1.42 |
| CCN(CC(=O)Nc1ccc(OC)cc1)C(=O)CCS(=O)(=O)c1ccc(C)cc1 | 7.4 |
| Cn1nnnc1NCc1ccc(Cl)cc1 | 9.28 |
| COc1cc(/C=C2/NC(=O)N(Cc3ccccc3F)C2=O)cc(OC)c1O | 13.1 |
| CN1CCN(c2ncnc3c2[nH]c2ccc(F)cc23)CC1 | 0.787 |
| Cc1ccc(/C=N/NC(=O)c2cc(-c3ccccc3)nc3ccccc23)o1 | 11.9 |
| Cc1ccccc1OCc1nc2ccccc2c(=O)n1/N=C/c1cccc([N+](=O)[O-])c1 | 4.97 |
| Cc1cc(-c2n[nH]c(=S)n2/N=C/C=C/c2ccccc2)n[nH]1 | 8.99 |
| Cc1ccc(S(=O)(=O)N(C(=O)c2ccncc2)c2ccc3oc4c(c3c2)CCCC4)cc1[N+](=O)[O-] | 19.2 |
| C=CCn1nnnc1SCC(=O)Nc1ccccc1C(=O)OC | 3.49 |
| Clc1cc(Br)ccc1OCCCn1ccnc1 | -10.5 |
| CCOc1cc(S(=O)(=O)NCc2ccccc2)c(OCC)cc1-n1cnnn1 | -2.65 |
| CC1CCN(c2c(NCC3CCC(C(=O)NCc4ccc(F)cc4)CC3)c(=O)c2=O)CC1 (stereo not drawn) | 2.08 |
| Cl.Oc1ccc(C(c2nnnn2C2CCCC2)N2CCc3ccccc3C2)cc1 (stereo not drawn) | 7.87 |
| Cl.Nn1cnnc1N/N=C/c1ccc(Cl)cc1Cl | 9.63 |
| COc1ccc(S(=O)(=O)NC(CC(=O)N2CCc3ccccc32)c2ccco2)cc1 (stereo not drawn) | 14.7 |
| CCOC(=O)CNC(=O)c1cnc(Nc2ccccc2OC)c2ccccc12 | 10.6 |
| O=C(COc1ccccc1)Nc1ccc2[nH]ncc2c1 | 17.6 |
| CCc1noc(C)c1C(=O)N(Cc1ccccc1)c1c(N)n(CCOC)c(=O)[nH]c1=O | 12.1 |
| C=CCn1c(C)nnc1SCC(=O)NC1CCCCC1 | 6.97 |
| Cc1ccc(C(=O)Cn2c(C(=O)/C=C/c3ccccc3)nc3ccccc32)cc1 | -7.28 |
| Cc1cccc(C(=O)OCC(=O)Nc2nccs2)c1 | 1.03 |
| O=C(N/N=C/c1ccc(O)cc1)c1csc2c1CCCC2 | -4.91 |
| COc1ccccc1C(=O)NCC(=O)NCc1cc(=O)n(C)c(=O)n1C | 19.7 |
| CCCc1[nH]n(-c2nc3ccccc3s2)c(=O)c1C=NCCCOC | -9.11 |
| CCCC(=O)C1=C(N(C)c2ccccc2)CC(C)(C)CC1=O | 13.8 |
| O=C(OCCN(C1=NS(=O)(=O)c2ccccc21)c1ccc(Cl)cc1)c1ccco1 | -2.25 |

| Structure (SMILES) | hERG current change (%, negative = inhibition) at 1uM [%] |
| --- | --- |
| Cc1ccnc(NC(=O)C2CCN(S(=O)(=O)c3cccc(C(F)(F)F)c3)CC2)c1 | 19.5 |
| CCCN(CCC)S(=O)(=O)c1ccc(C(=O)Nc2nc(-c3ccccc3)c(C(=O)OCC)s2)cc1 | 2.08 |
| Cc1cc(C)n(Cc2ccc(NC(=O)c3c([N+](=O)[O-])c(C)nn3C)cc2)n1 | 9.05 |
| CC1C(=O)N2CCCc3cc(S(=O)(=O)N4CCN(c5cccc(Cl)c5)CC4)cc1c32 (stereo not drawn) | 0.539 |
| COc1ccc(-c2csc(NC(=O)c3ccc(OCC(=O)N4CCOCC4)c(OC)c3)n2)cc1OC | 4.61 |
| CC(=O)NS(=O)(=O)c1ccc(NC(=O)c2ccc3c(c2)C(=O)N(CCC(C)C)C3=O)cc1 | 13.2 |
| COc1ccc2cc(C(=O)NCC3CCCO3)[nH]c2c1 (stereo not drawn) | 21.7 |
| Cc1cc(=O)oc2cc(OCC(=O)N3C[C@H]4C[C@@H](C3)c3cccc(=O)n3C4)ccc12 | 9.1 |
| O=C(CN(c1ccc(F)cc1)S(=O)(=O)c1ccc2c(c1)OCCO2)NCC1CCCO1 (stereo not drawn) | 3.24 |
| COc1ccc(C2=NS(=O)(=O)N(C)C(C(=O)Nc3ccc(F)cc3F)=C2)cc1 | 15 |
| Cc1ccccc1NC(=O)CN1C(=O)N/C(=C\c2cccn2-c2cccc(C(=O)O)c2)C1=O | 17.8 |
| Nc1ncc(-n2cncn2)c(-c2ccccc2)n1 | 10.2 |
| CC(C)Oc1ccc(CSc2ncn[nH]2)cc1 | 17.4 |
| Cc1ccc(/C=N/NC(=O)c2nnn(-c3nonc3N)c2CSc2ccc(Cl)cc2)cc1 | 9.71 |
| COc1ccccc1C(=O)NC(=S)Nc1ccc2[nH]c(=O)[nH]c2c1 | 18.5 |
| COc1ccc(C(C(=O)NC2CCCC2)N(Cc2cccnc2)C(=O)Cc2cccs2)cc1OC (stereo not drawn) | 10.1 |
| Cc1cc2nc(C3CCN(Cc4nnnn4Cc4cccs4)CC3)[nH]c2cc1C | -72.4 |
| CC1CN(C(=O)CSc2nnc(CNC(=O)c3ccc(S(=O)(=O)N(C)C)cc3)o2)CC(C)O1 (stereo not drawn) | 13.5 |
| COCC(=O)Nc1ccc(S(=O)(=O)N2CCCC2)cc1 | 12.4 |
| N#Cc1cn(CCOC(=O)c2cccc(C(F)(F)F)c2)c(=O)[nH]c1=O | 5.24 |
| CCn1c(=O)c(CCC(=O)NCCN2CCOCC2)c(C)c2c(C)nn(-c3cccc(C)c3)c21 | 6.45 |
| Cc1ccc2nc(SCC(=O)Nc3cc(C(F)(F)F)ccc3N3CCOCC3)[nH]c2c1 | 4.18 |
| CCCCC(=O)Nc1ccc2c(c1)oc1ccccc12 | 9.12 |
| Cc1nc2ccccc2c(=O)n1/N=C/C=C/c1ccccc1 | 11.6 |
| N#CCO/N=C/C(=O)Nc1ccc(F)cc1F | -16.7 |
| COc1cc(C2C3=C(Nc4ncnn42)c2ccccc2CC3)cc(OC)c1OC (stereo not drawn) | -7.49 |
| O=C(CSc1nnnn1Cc1ccccc1)Nc1ccc2c(c1)OCCO2 | 1.17 |
